PubChem BioAssay AID1963576 (National Center for Advancing Translational Sciences (NCATS), 2024)
The whole screen tested about 46,000 compounds, of which about 60 (0.1%) were called active. Not shown: some 3% with an inconclusive outcome. The call rests on the fitted dose curve; in most records, active means well fitted inhibition curve with a large enough effect; inconclusive means small, poorly fitted or top-dose-only effect; inactive means no such curve, though single readings can be large or run the other way. This is one part of the list.

test: Primary qHTS assay for Inhibitors of ovarian cancer metastasis using an organotypic tumor microenvironment (TME) model.; further: nearly all actives have a fitted effect of over 65% in size;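 on activity change, negative = inhibition: plate controls were DMSO wells for no effect and tomatine positive control wells for full effect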; settings: SKOV3ip1-GFP adhesion/invasion on 3D omental model, fluorescence; series mostly up to 45.8 µM; activity change, negative = inhibition: at the top concentration
Outline: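 Primary human omental fibroblast/mesothelial 3D culture pre-formed 48 h. SKOV3ip1-GFP cells added with compounds (0.36-46 umol/L), incubated 2 h RT/16 h 37 C, fixed; GFP cells quantified at 488/509 nm.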

Activity change, negative = inhibition, inactive:
COc1ccc(C(=O)c2cn(Cc3ccc(F)cc3)c3c(F)cc(F)cc3c2=O)cc1 -23.3%, Cc1ccc(NC(=O)CSc2nc3ccc(NC(=O)c4cccc(Cl)c4)cc3s2)c(C)c1 3.18%, CCOC(=O)c1ccc(N2C(=O)c3n[nH]c(-c4ccco4)c3C2c2cccc(F)c2)cc1 (stereo unspecified) 1.38%, COc1ccccc1C(=O)Nc1ccc(-c2nc3cc(C)cc(C)c3o2)cc1 0.637%, COC(=O)c1c(NC(=O)CCCOc2cccc(C)c2)sc2c1CCC(C)C2 (stereo unspecified) -18.7%, O=C(Cn1ncc2c3ccccc3n(Cc3ccccc3)c2c1=O)NCc1ccccc1 -1.76%, COc1cc(C2C(C(=O)Nc3ccccc3)=C(C)Nc3nc(SCC(=O)c4ccc(C)cc4)nn32)ccc1O (stereo unspecified) -9.19%, CC(C)NS(=O)(=O)c1ccc(OCC(=O)N2CCN(c3cccc(Cl)c3)CC2)cc1 -4.7%, Cc1ccc(Cn2c(C)c(CNCc3ccccc3F)c(C(=O)O)c2C)cc1 -5.63%, CCc1ccccc1N(C)C(=O)c1cc2c(s1)-c1c(C)cccc1OC2 -3.51%, COc1cccc(CN2C(=O)C3(SCC(=O)N3c3ccc(F)cc3)c3ccccc32)c1 (stereo unspecified) 14.1%, COc1ccc(-c2nc3c(c(SCC(=O)Nc4cc(C)cc(C)c4)n2)Cc2c(CO)cnc(C)c2O3)cc1 10.8%, Cc1nc2sc(C)c(C)n2c(=O)c1S(=O)(=O)NCCc1ccc(Cl)cc1 -3.18%, O=C(C1CCCN(S(=O)(=O)c2cccs2)C1)N1CCN(c2ccccc2F)CC1 (stereo unspecified) 18.2%, Cc1ccc(CN(Cc2cccn2-c2nnc(N3CCCC3=O)s2)C(=O)Nc2cc(C)cc(C)c2)cc1 4.38%, CC(=O)c1ccc(NC(=O)c2cn(C)c(=O)c3ccccc23)cc1 8.32%, O=C(NCc1cccc(Cl)c1)c1ccc2c(c1)nc1n2CCOC1 3.07%, CCOC(=O)N1CCc2c(sc3c2c(=O)n(CCc2ccccc2)c(=O)n3Cc2ccc(C)cc2C)C1 5.3%, COc1ccc(-c2nc(CCNC(=O)Cc3ccc(F)cc3)cs2)cc1 -1.14%, Cc1cccc(C(=O)Nc2nc3c(s2)CCCC3)c1 -13.6%, O=C(NC1CC(=O)N(c2ccccc2)C1)c1cccs1 (stereo unspecified) -2.1%, CCc1ccccc1NC(=O)N1CC(CC)Oc2ccc(Cl)cc21 (stereo unspecified) -2.74%, CCOCCc1nn2c(=O)cc(COC(=O)c3ccccc3NC(=O)c3cccs3)nc2s1 3.95%, COC(=O)c1ccc(NC(=O)c2cc3cc(C)ccc3n2C)cc1 3.73%, COc1ccc(NC(=O)CSc2nc3ccccc3n2CC(=O)NCc2ccc(F)cc2)cc1 -5.64%, COc1ccc(-c2c3c(=O)n(C)c(=O)n(C)c3c3n2-c2ccccc2NC3c2ccccc2OC)cc1 (stereo unspecified) -42.2%, COc1ccc(S(=O)(=O)N2CCC(C(=O)Nc3ccc(Oc4ccccc4)cc3)CC2)cc1OC -8.57%, CCOc1ccc(NC(=O)CSc2nnc3c(C)cc4ccccc4n23)cc1 -3%, Cc1ccc2c(CC(=O)Nc3ccc(S(=O)(=O)N4CCC(C)CC4)cc3)coc2c1 16.3%, COc1cc(NC(=O)Nc2nnc(N3CCCCC3)s2)cc(OC)c1 -7.3%, CCCn1c2ccccc2c2cnn(CC(=O)Nc3ccccc3OC)c(=O)c21 -6.96%, COC(=O)c1ccccc1NC(=O)Cn1nc(C)c2nn(-c3ccc(Cl)cc3)c(C)c2c1=O -9.67%, O=C(CSc1nc2c(c(=O)[nH]1)CN(Cc1ccc3c(c1)OCO3)CC2)Nc1cc(F)ccc1F 5.69%, COc1ccc(Cl)cc1NC(=O)C1CCCN(S(=O)(=O)c2ccc3c(c2)CCCC(=O)N3)C1 (stereo unspecified) 3.06%, Cc1ccccc1OCC(=O)Nc1ccc(OCc2cc(=O)n3ccccc3n2)cc1 24.4%, CCOc1ccccc1N(C)C(=O)c1sc2nc3n(c(=O)c2c1C)CCCC3 -4.52%, COc1ccc(NC(=O)CSc2nccn2C2CCCC2)cc1OC -6.37%, Cc1nn(CC(=O)Nc2ccc(C(C)C)cc2)c(=O)c2c(C)n(-c3ccc(Cl)cc3)nc12 -14.2%, COc1ccc(NC(=O)CSc2nc(-c3ccccc3)cc(-c3cc(OC)c(OC)c(OC)c3)c2C#N)c(OC)c1 2.69%, CCOC(=O)c1c(NC(=O)CSc2cn(CCNC(=O)c3ccc(OC)cc3)c3ccccc23)sc2c1CCC2 8.42%, CC(=O)N1CCc2cc(CNS(=O)(=O)c3cccs3)ccc21 -3.68%, COc1ccc(-c2nnc(SCC(=O)Nc3cccc(C)c3)s2)cc1 1.3%, COc1ccccc1N1CCN(S(=O)(=O)CCNC(=O)c2cc(=O)c3ccccc3o2)CC1 -0.358%

outcome, inactive:
CCc1ccc(S(=O)(=O)c2nnn3c2nc(N2CCN(CC)CC2)c2sccc23)cc1, CN1C(=O)c2ccccc2Sc2ccc(NC(=O)NCc3ccccc3Br)cc21, Cc1ccc(CN(Cc2ccco2)C(=O)c2ccccc2Cl)o1, c1ccc(CNc2ncnc3[nH]ncc23)cc1, Cc1cccc(N2CCN(C(=O)CCNS(=O)(=O)c3ccc4c(c3)CCN4C(=O)C3CC3)CC2C)c1 (stereo unspecified), COc1ccc(N2CCN(C(=O)c3c(C)nn(-c4ccc(F)cc4)c3-n3cccc3)CC2)cc1, CSc1ccc(CCNC(=O)c2ccc3c(c2)nc2n3CCC(C)C2)cc1 (stereo unspecified), COc1ccc(NC(=O)c2ccc(-c3nc(COc4ccccc4)c(C)o3)cc2)cc1, CCCCSCCCNC(=O)c1cn(CC)c2ccc(S(=O)(=O)N3CCOCC3)cc2c1=O, CCc1ccccc1NC(=O)Cn1nc(-c2cc(C)ccc2C)c2c(c1=O)CCCC2, O=c1c2[nH]c3ccccc3c2nc(SCc2ccccc2F)n1-c1ccc(F)cc1, CC1CCc2nc3ccc(S(=O)(=O)N4CCC(C(=O)NCc5ccccc5Cl)CC4)cc3c(C(=O)O)c2C1 (stereo unspecified), Cc1cccc(NC(c2cccc(Cl)c2)c2ccc3cccnc3c2O)n1 (stereo unspecified), Cc1ccc(CNC(=O)c2ccc3oc(=O)n(Cc4ccccc4)c3c2)cc1, CCCCN(CCCNC(=O)c1cc(Nc2ccc(OC)cc2OC)nc2ccccc12)Cc1ccccc1, COc1ccc(-c2cn3nc(N4CCCC(C(=O)Nc5ccccc5F)C4)sc3n2)cc1 (stereo unspecified), CCCCOC(=O)c1ccc(NC(=O)C2(c3cccs3)CCOCC2)cc1, CC(C)(Oc1ccc(Cl)cc1)C(=O)Nc1ccc(-c2nc3ncccc3o2)cc1
